Data: the supplement of paper PMC10037445
Where “and” joins values, the source holds several entries; their conditions need not be identical. Equal values may be shown once. Over roughly 2,900 compounds, “NF-kB SEAP reporter activity, fold change vs agonist alone” has its median near 0.99; the highest 2% begin near 2.6. This is one part of the list.

Experiments:
RAW-Dual [1] = experiment: NF-kB SEAP reporter activity, fold change vs agonist alone; higher = enhanced NF-kB activity; settings: library stock concentration (final ~1000-fold dilution): 10 mM
Procedure, shortened: (§1)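 Reporter activity is given as fold change relative to agonist-alone wells. To measure it, 50 nL of library stock was pin-tooled onto RAW-Dual macrophages (50,000 cells/well, DMEM, 384-well plates), a PRR agonist followed 1 h later, and cells stayed at 37 °C, 5% CO2. Twenty hours on, supernatant was assayed for IRF (QuantiLuc luminescence) and NF-κB (QuantiBlue, 620 nm absorbance), and wells under 70% of agonist-control IncuCyte confluency in both mask sets were marked cytotoxic.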

RAW-Dual [2] = experiment: NF-kB SEAP reporter activity, fold change vs agonist alone; cytotoxicity flag (confluency mask): not cytotoxic; higher = enhanced NF-kB activity
Procedure, shortened: as §1

RAW-Dual [3] = experiment: NF-kB SEAP reporter activity, fold change vs agonist alone; cytotoxicity flag (confluency mask): cytotoxic (confluency <70% of control); higher = enhanced NF-kB activity
Procedure, shortened: as §1

[4] = cytotoxicity flag (confluency mask): not cytotoxic, agonist: Imiquimod (TLR7) […]
[5] = cytotoxicity flag (confluency mask): not cytotoxic, agonist: MPLA (TLR4) […]
[6] = agonist: ODN 1826 (TLR9) 0.5 ug/mL
[7] = agonist: Pam2CSK4 (TLR2/6) 0.1 ug/mL
[8] = agonist: Pam3CSK4 (TLR2/1) 0.1 ug/mL

CC1=C(C(=O)Nc2cc3cn[nH]c3cc2F)C(c2ccc(C(F)(F)F)cc2)CC(=O)N1 (configuration not stated)
NF-kB SEAP reporter activity (RAW-Dual [1]; [4]): 1.13 | NF-kB SEAP reporter activity (RAW-Dual [1]; [5]): 1.01

CC1=C(C(=O)Nc2cc3cn[nH]c3cc2F)C(c2ccc(C(F)(F)F)cc2)CC(=O)N1 (configuration not stated) (library stock concentration (final ~1000-fold dilution): 10 mM)
NF-kB SEAP reporter activity (RAW-Dual [2]; agonist: LPS (TLR4) 0.1 ug/mL): 1.24 | NF-kB SEAP reporter activity (RAW-Dual [2]; [6]): 1.39 | NF-kB SEAP reporter activity (RAW-Dual [2]; [7]): 1.02 | NF-kB SEAP reporter activity (RAW-Dual [2]; [8]): 1.2

CCOC(=O)c1ncn2c1CN(C)C(=O)c1cc(F)ccc1-2
NF-kB SEAP reporter activity (RAW-Dual [1]; [4]): 0.874 | NF-kB SEAP reporter activity (RAW-Dual [1]; [5]): 0.989

CCOC(=O)c1ncn2c1CN(C)C(=O)c1cc(F)ccc1-2 (library stock concentration (final ~1000-fold dilution): 10 mM)
NF-kB SEAP reporter activity (RAW-Dual [2]; agonist: LPS (TLR4) 0.1 ug/mL): 1.41 | NF-kB SEAP reporter activity (RAW-Dual [2]; [6]): 0.989 | NF-kB SEAP reporter activity (RAW-Dual [2]; [7]): 1.02 | NF-kB SEAP reporter activity (RAW-Dual [2]; [8]): 1.1

O=C(O)c1cc(=O)cc(C(=O)O)o1 (library stock concentration (final ~1000-fold dilution): 10 mM)
NF-kB SEAP reporter activity (RAW-Dual [2]; agonist: LPS (TLR4) 0.1 ug/mL): 1.18 and 1.16 | NF-kB SEAP reporter activity (RAW-Dual [2]; [6]): 1.01 and 1.12 | NF-kB SEAP reporter activity (RAW-Dual [2]; [7]): 1.06 and 1.14 | NF-kB SEAP reporter activity (RAW-Dual [2]; [8]): 0.992 and 1.01

COc1cc(CCC(O)CC(O)CCc2ccc(O)c(OC)c2)ccc1O (configuration not stated)
NF-kB SEAP reporter activity (RAW-Dual [1]; [4]): 1.04 | NF-kB SEAP reporter activity (RAW-Dual [1]; [5]): 1.05

COc1cc(CCC(O)CC(O)CCc2ccc(O)c(OC)c2)ccc1O (configuration not stated) (library stock concentration (final ~1000-fold dilution): 10 mM)
NF-kB SEAP reporter activity (RAW-Dual [2]; agonist: LPS (TLR4) 0.1 ug/mL): 1.41 | NF-kB SEAP reporter activity (RAW-Dual [2]; [6]): 1.15 | NF-kB SEAP reporter activity (RAW-Dual [2]; [7]): 1.08 | NF-kB SEAP reporter activity (RAW-Dual [2]; [8]): 1.06

CN(C)CCOC(C)(c1ccccc1)c1ccccn1.O=C(O)CCC(=O)O (configuration not stated)
NF-kB SEAP reporter activity (RAW-Dual [1]; [4]): 0.903 | NF-kB SEAP reporter activity (RAW-Dual [1]; [5]): 1.02

CN(C)CCOC(C)(c1ccccc1)c1ccccn1.O=C(O)CCC(=O)O (configuration not stated) (library stock concentration (final ~1000-fold dilution): 10 mM)
NF-kB SEAP reporter activity (RAW-Dual [2]; agonist: LPS (TLR4) 0.1 ug/mL): 0.998 | NF-kB SEAP reporter activity (RAW-Dual [2]; [6]): 0.838 | NF-kB SEAP reporter activity (RAW-Dual [2]; [7]): 0.951 | NF-kB SEAP reporter activity (RAW-Dual [2]; [8]): 1.03

Cc1ccccc1OCC(O)CO (configuration not stated)
NF-kB SEAP reporter activity (RAW-Dual [1]; [5]): 1.05

Cc1ccccc1OCC(O)CO (configuration not stated) (library stock concentration (final ~1000-fold dilution): 10 mM)
NF-kB SEAP reporter activity (RAW-Dual [2]; agonist: LPS (TLR4) 0.1 ug/mL): 1.03 | NF-kB SEAP reporter activity (RAW-Dual [2]; [6]): 0.992 | NF-kB SEAP reporter activity (RAW-Dual [2]; [7]): 0.999 | NF-kB SEAP reporter activity (RAW-Dual [2]; [8]): 0.962

O=C1CN(/N=C/c2ccc([N+](=O)[O-])o2)C(=O)N1 (library stock concentration (final ~1000-fold dilution): 10 mM)
NF-kB SEAP reporter activity (RAW-Dual [2]; agonist: LPS (TLR4) 0.1 ug/mL): 1.09 | NF-kB SEAP reporter activity (RAW-Dual [2]; [6]): 0.855 | NF-kB SEAP reporter activity (RAW-Dual [2]; [7]): 1.1 | NF-kB SEAP reporter activity (RAW-Dual [2]; [8]): 1.11

O=C1CN(/N=C/c2ccc([N+](=O)[O-])o2)C(=O)N1
NF-kB SEAP reporter activity (RAW-Dual [1]; [4]): 0.924 | NF-kB SEAP reporter activity (RAW-Dual [1]; [5]): 0.948

Cl.O=C(c1ccc(OCCN2CCCCC2)cc1)c1c(-c2ccc(O)cc2)sc2cc(O)ccc12
NF-kB SEAP reporter activity (RAW-Dual [1]; [4]): 2.49 | NF-kB SEAP reporter activity (RAW-Dual [1]; [5]): 2.15

Cl.O=C(c1ccc(OCCN2CCCCC2)cc1)c1c(-c2ccc(O)cc2)sc2cc(O)ccc12 (library stock concentration (final ~1000-fold dilution): 10 mM)
NF-kB SEAP reporter activity (RAW-Dual [2]; agonist: LPS (TLR4) 0.1 ug/mL): 1.25 | NF-kB SEAP reporter activity (RAW-Dual [2]; [6]): 0.301 | NF-kB SEAP reporter activity (RAW-Dual [2]; [7]): 0.86 | NF-kB SEAP reporter activity (RAW-Dual [2]; [8]): 1.98

CC(C)N1CCN(Cc2cnc(-c3cc(-c4cccc5[nH]ccc45)cc4[nH]ncc34)o2)CC1 (library stock concentration (final ~1000-fold dilution): 10 mM)
NF-kB SEAP reporter activity (RAW-Dual [2]; agonist: LPS (TLR4) 0.1 ug/mL): 4.66

CN1C(=O)C(NC(=O)c2cc(Cc3ccccc3)on2)COc2ccccc21 (configuration not stated) (library stock concentration (final ~1000-fold dilution): 10 mM)
NF-kB SEAP reporter activity (RAW-Dual [2]; agonist: LPS (TLR4) 0.1 ug/mL): 1.18 | NF-kB SEAP reporter activity (RAW-Dual [2]; [6]): 0.843 | NF-kB SEAP reporter activity (RAW-Dual [2]; [7]): 0.992 | NF-kB SEAP reporter activity (RAW-Dual [2]; [8]): 1.14

CN1C(=O)C(NC(=O)c2cc(Cc3ccccc3)on2)COc2ccccc21 (configuration not stated)
NF-kB SEAP reporter activity (RAW-Dual [1]; [4]): 0.926 | NF-kB SEAP reporter activity (RAW-Dual [1]; [5]): 1.06

O=C1OC(=O)C2C3CCC(O3)C12 (configuration not stated) (library stock concentration (final ~1000-fold dilution): 10 mM)
NF-kB SEAP reporter activity (RAW-Dual [2]; agonist: LPS (TLR4) 0.1 ug/mL): 3.23 | NF-kB SEAP reporter activity (RAW-Dual [2]; [6]): 2 | NF-kB SEAP reporter activity (RAW-Dual [2]; [7]): 1.84 | NF-kB SEAP reporter activity (RAW-Dual [2]; [8]): 1.76

O=C1OC(=O)C2C3CCC(O3)C12 (configuration not stated)
NF-kB SEAP reporter activity (RAW-Dual [1]; [4]): 1.93 | NF-kB SEAP reporter activity (RAW-Dual [1]; [5]): 2.03

CCOC(=O)n1ccn(C)c1=S
NF-kB SEAP reporter activity (RAW-Dual [1]; [4]): 0.978 | NF-kB SEAP reporter activity (RAW-Dual [1]; [5]): 1.03

CCOC(=O)n1ccn(C)c1=S (library stock concentration (final ~1000-fold dilution): 10 mM)
NF-kB SEAP reporter activity (RAW-Dual [2]; agonist: LPS (TLR4) 0.1 ug/mL): 0.918 | NF-kB SEAP reporter activity (RAW-Dual [2]; [6]): 0.932 | NF-kB SEAP reporter activity (RAW-Dual [2]; [7]): 0.935 | NF-kB SEAP reporter activity (RAW-Dual [2]; [8]): 1.05

Cc1c[nH]c(-c2cnc(NCCNc3ccc(C#N)cn3)nc2-c2ccc(Cl)cc2Cl)n1.Cl (library stock concentration (final ~1000-fold dilution): 10 mM)
NF-kB SEAP reporter activity (RAW-Dual [2]; agonist: LPS (TLR4) 0.1 ug/mL): 2.97 | NF-kB SEAP reporter activity (RAW-Dual [2]; [6]): 2.78 | NF-kB SEAP reporter activity (RAW-Dual [2]; [7]): 1.84 | NF-kB SEAP reporter activity (RAW-Dual [2]; [8]): 3.48

Cc1c[nH]c(-c2cnc(NCCNc3ccc(C#N)cn3)nc2-c2ccc(Cl)cc2Cl)n1.Cl
NF-kB SEAP reporter activity (RAW-Dual [1]; [4]): 2.27 | NF-kB SEAP reporter activity (RAW-Dual [1]; [5]): 2.2

CC(C)=CCCC(C)(OC1OC(CO)C(O)C(O)C1O)C1CCC2(C)C1C(O)CC1C3(C)CCC(OC4OC(CO)C(O)C(O)C4OC4OC(CO)C(O)C(O)C4O)C(C)(C)C3CCC12C (configuration not stated)
NF-kB SEAP reporter activity (RAW-Dual [1]; [4]): 1.01 | NF-kB SEAP reporter activity (RAW-Dual [1]; [5]): 1.02

CC(C)=CCCC(C)(OC1OC(CO)C(O)C(O)C1O)C1CCC2(C)C1C(O)CC1C3(C)CCC(OC4OC(CO)C(O)C(O)C4OC4OC(CO)C(O)C(O)C4O)C(C)(C)C3CCC12C (configuration not stated) (library stock concentration (final ~1000-fold dilution): 10 mM)
NF-kB SEAP reporter activity (RAW-Dual [2]; agonist: LPS (TLR4) 0.1 ug/mL): 0.838 | NF-kB SEAP reporter activity (RAW-Dual [2]; [6]): 1.11 | NF-kB SEAP reporter activity (RAW-Dual [2]; [7]): 0.899 | NF-kB SEAP reporter activity (RAW-Dual [2]; [8]): 1.02

COc1cc(N2CCC(N)CC2)ccc1Nc1ncc(Cl)c(-c2c[nH]c3ccccc23)n1
NF-kB SEAP reporter activity (RAW-Dual [1]; cytotoxicity flag (confluency mask): cytotoxic (confluency <70% of control), agonist: Imiquimod (TLR7) […]): 0.251 | NF-kB SEAP reporter activity (RAW-Dual [1]; cytotoxicity flag (confluency mask): cytotoxic (confluency <70% of control), agonist: MPLA (TLR4) […]): 0.226

COc1cc(N2CCC(N)CC2)ccc1Nc1ncc(Cl)c(-c2c[nH]c3ccccc23)n1 (library stock concentration (final ~1000-fold dilution): 10 mM)
NF-kB SEAP reporter activity (RAW-Dual [3]; agonist: LPS (TLR4) 0.1 ug/mL): 0.166 | NF-kB SEAP reporter activity (RAW-Dual [3]; [6]): 0.19 | NF-kB SEAP reporter activity (RAW-Dual [3]; [7]): 0.0626 | NF-kB SEAP reporter activity (RAW-Dual [3]; [8]): 0.118
